# Paper PMC4336329 (PLoS ONE, 2015)
# Out of some 310,000 compounds screened, about 14,000 (4.5%) showed an effect of 50% or more. The effect is printed as a negative number. This is one part of the list. Where a SMILES comes first, the peptide text is derived from it. [ ]: non-standard residue; d: D form. The star is where a group is joined. ξ: configuration not given here. Cbz = O=C(OCc1ccccc1)*; ξK = NCCCCC(N)C(=O)O
# Biological target: human ether-à-go-go-related gene (hERG) potassium channel (human, UniProt Q12809)
# Test: primary screen, population patch clamp on CHO cells stably expressing hERG
# 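Further: peak tail current of the secondary pulse compared with the same well before compound.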
# Chain of human ether-à-go-go-related gene (hERG) potassium channel (Q12809 whole entry, looked up): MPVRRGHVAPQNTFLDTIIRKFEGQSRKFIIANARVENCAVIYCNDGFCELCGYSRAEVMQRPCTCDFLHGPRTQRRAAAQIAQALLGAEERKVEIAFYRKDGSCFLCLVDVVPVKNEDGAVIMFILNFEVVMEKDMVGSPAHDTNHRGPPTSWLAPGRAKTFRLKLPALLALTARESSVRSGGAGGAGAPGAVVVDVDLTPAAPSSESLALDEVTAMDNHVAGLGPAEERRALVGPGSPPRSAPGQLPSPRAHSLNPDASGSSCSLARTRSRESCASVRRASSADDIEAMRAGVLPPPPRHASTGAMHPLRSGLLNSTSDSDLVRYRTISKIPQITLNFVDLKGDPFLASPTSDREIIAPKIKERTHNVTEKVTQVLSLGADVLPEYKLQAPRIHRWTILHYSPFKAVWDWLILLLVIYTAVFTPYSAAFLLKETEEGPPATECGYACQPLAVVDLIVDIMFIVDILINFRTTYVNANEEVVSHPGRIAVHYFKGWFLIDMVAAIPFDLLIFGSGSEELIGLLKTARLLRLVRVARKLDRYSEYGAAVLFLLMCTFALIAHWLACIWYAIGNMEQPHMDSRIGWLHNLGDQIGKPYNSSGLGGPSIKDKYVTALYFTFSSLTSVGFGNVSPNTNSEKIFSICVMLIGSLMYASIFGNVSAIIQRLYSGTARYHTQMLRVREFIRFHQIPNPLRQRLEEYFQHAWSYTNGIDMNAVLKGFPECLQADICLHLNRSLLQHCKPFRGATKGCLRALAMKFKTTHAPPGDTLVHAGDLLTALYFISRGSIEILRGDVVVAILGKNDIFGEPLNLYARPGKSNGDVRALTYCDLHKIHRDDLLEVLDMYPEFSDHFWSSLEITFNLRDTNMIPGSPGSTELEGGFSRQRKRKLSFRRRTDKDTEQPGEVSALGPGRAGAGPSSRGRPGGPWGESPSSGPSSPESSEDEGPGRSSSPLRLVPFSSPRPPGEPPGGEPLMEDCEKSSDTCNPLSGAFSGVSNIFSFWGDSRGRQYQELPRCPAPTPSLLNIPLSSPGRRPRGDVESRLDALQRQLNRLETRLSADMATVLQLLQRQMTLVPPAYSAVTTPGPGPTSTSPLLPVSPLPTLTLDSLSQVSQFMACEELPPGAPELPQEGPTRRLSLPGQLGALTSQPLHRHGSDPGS
row,Structure (SMILES),"hERG current change (%, negative = inhibition) at 10uM [%]"
1,COc1ccc2cc(C(C)C(=O)Nc3cccc(S(=O)(=O)N(C)C)c3)ccc2c1 (stereo not shown),-6.54
2,COC(=O)c1sc(S(=O)(=O)N2CCCCC2C(=O)O)c(C(=O)OC)c1C (stereo not shown),9.14
3,NCCCC[C@@H](C(=O)NCCCCCCCCCCC(=O)N1CCNCC1)n1cc(CCO)nn1,13.8
4,C=CCNc1nc(Nc2ccc([N+](=O)[O-])cc2)nc(N2CCCC2)n1,-23.8
5,Cn1c(=O)c2c(ncn2CC(=O)OCC(=O)NCc2ccccc2Cl)n(C)c1=O,13.1
6,Cc1ccc(NC(=O)NNC(=O)CN2C(=O)COc3ccccc32)cc1,2.83
7,CC(C)Cn1c(CNC(=O)c2ccccc2)nc2ccccc21,-8.16
8,CCOC(=O)c1c2c([nH]c(=S)c1C#N)CCCC2,22.1
9,COc1ccc(NC(=O)O/N=C/c2ccc(Br)cc2)cc1,26.9
10,O=C(Cn1nnc(-c2cccc(C(F)(F)F)c2)n1)NC(=O)NCc1ccco1,10.2
11,O=C(CCc1nc2ccccc2c(=O)[nH]1)N1CCN(S(=O)(=O)c2ccc(Cl)c(C(F)(F)F)c2)CC1,-20
12,COC(=O)C(CCCCNC(=O)OCc1ccccc1)NC(=O)CN.Cl (stereo not shown) (H-Gly-[ξK](Cbz)-OMe),8.85
13,Cn1c(SCC(=O)c2ccccc2)nnc1-c1cccc(N)c1,8.57
14,CSc1ccc(/C=N/NC(=O)c2cccc(O)c2)cc1,8
15,COC(=O)C1CSC2c3ccccc3C(=O)N12 (stereo not shown),9.53
16,CC(C)c1ccccc1NC(=O)c1cccnc1,2.91
17,CC1CC(C)CN(CCCNC(=O)C2CCN(c3nnc(-n4cccc4)s3)CC2)C1 (stereo not shown),-28.3
18,COc1ccccc1C(=O)NCCn1cc(SCC(=O)Nc2cc(C)on2)c2ccccc21,-15.6
19,CCc1nnc(NC(=O)CN2C(=O)NC3(CCCC3)C2=O)s1,-0.499
20,CCOC(=O)Cc1csc(NC(=O)C(CC(C)C)NC(=O)C2CCCCC2)n1 (stereo not shown),7.55
21,Cc1cc(=O)oc2cc(NC(=O)c3cccc(S(=O)(=O)N(C)C)c3)ccc12,16.4
22,OC[C@@H](O)[C@@H](O)[C@H](O)[C@@H](O)CO,10.3
23,C=CCNC(=S)Nc1ccc(OC)c(S(=O)(=O)N2CCOCC2)c1,-10.3
24,CCOC(=O)Cn1c(=O)sc2ccccc21,1.17
25,COc1ccccc1-n1c(SCC(=O)N2CCc3ccccc32)nc2c(c1=O)SCC2,7.1
26,COc1ccc(NC(=O)Cn2c(CCC(=O)O)ccc2-c2ccc(C)cc2)cc1,1.48
27,Cc1cccc(Nc2nc(N3CCCC3)nc(N3CCCC3)n2)c1,1.44
28,CCn1c(NCc2ccccn2)nc2ccccc21,-4.06

row,Structure (SMILES),"hERG current change (%, negative = inhibition) at 10uM [%]"
1,CSc1ccc(CN(C)C(=O)c2cccc(S(=O)(=O)N3CCN(Cc4ccccc4)CC3)c2)cc1,-1.76
2,COC(=O)C1=C(C)NC(=O)NC1c1cccc(OC)c1OCc1ccccc1 (stereo not shown),-11.9
3,Cc1cccc(-c2oc3ccccc3c2C#CCCO)c1,16.7
4,COC(=O)c1c(NC(=O)c2ccco2)sc2c1CCN(C(C)=O)C2,-2.22
5,CCc1ccc(-c2nc(C(N)=O)c3[nH]c(=O)n(-c4ccccc4OC)c3n2)cc1,-0.102
6,COc1cccc(CNC(=O)CCn2ccc3cc(S(=O)(=O)N4CCC(C)CC4)ccc32)c1,-3.69
7,COc1ccc(C(=O)Nc2cccc3c2CCCC3)c(OC)c1,5.99
8,COc1cc(C(=O)NCc2nnc(SCC(=O)Nc3cccc(C(F)(F)F)c3)o2)cc(OC)c1OC,-19.7
9,O=C(CNC(=O)c1ccccc1)Oc1cccc(Cl)c1,17.8
10,CCN1CCN(C(=O)c2ccc3c(=O)n(Cc4ccccc4OC)c(=S)[nH]c3c2)CC1,-8.43
11,Cc1n[nH]c(C)c1S(=O)(=O)N(CC(=O)N1CCc2ccccc21)c1ccc(C(C)C)cc1,7.14
12,CCOc1ccc(OCC)c(NC(=O)C2CCCN(c3ncccn3)C2)c1 (stereo not shown),-11.5
13,O=C(NCCc1ccccc1)C1CCC(CNS(=O)(=O)c2cccc3cccnc23)CC1 (stereo not shown),-6.89
14,CC(=O)Nc1ccc(NC(=O)c2nc(S(=O)(=O)Cc3cccc(C)c3)ncc2Cl)cc1,2.07
15,Cc1nc(N2CCC(C)CC2)c2c(C)c(C(=O)O)sc2n1,-0.111
16,Cc1ccc(CN2CCCC(C(=O)c3cccc(C(F)(F)F)c3)C2)o1 (stereo not shown),-19.3
17,COCCn1c(=N)c(S(=O)(=O)c2ccc(F)cc2)cc2c(=O)n3ccccc3nc21,-25.5
18,COc1ccc(CN(C)C(=O)C2CCN(C(=O)Nc3ccccc3)CC2)cc1OC,-1.53
19,Cc1cc(-c2ccc3c(c2)COc2c4ccccc4nn2-3)on1,7.49
20,CC(C)OC(=O)CN1C(=O)C(=O)c2ccccc21,-4.72
21,COc1ccc(N2CCN(S(=O)(=O)c3cc4c5c(c3)C(C)C(=O)N5CCC4)CC2)cc1 (stereo not shown),3.36
22,N#Cc1cnn(-c2nc3sc4c(c3c(=O)[nH]2)CCCC4)c1N,19.6
23,C[C@@H](CN1C(=O)C(=O)NC[C@@H]1Cc1ccc(O)cc1)NC(=O)Cc1ccccc1,10.1
24,COc1cccc(CC2(CO)CCCN(C(=O)c3cc[n+]([O-])cc3)C2)c1 (stereo not shown),10.4
25,CCOC(=O)N1CCN(C(=O)CN(Cc2ccc(Cl)cc2)S(=O)(=O)c2ccc(C)cc2)CC1,-42.8
26,CC(=O)Nc1ccc(S(=O)(=O)NNC(=O)CCc2ccccc2)cc1,-3.34
27,Cc1ccccc1NC(=O)Cn1nnc2sc3c(c2c1=O)CC(C)(C)OC3,-35.2
